Tests used:
[1] = molecular target: T1, 人PD-1 (on CHOZn/PD-1 stably transfected cells) (human, UniProt Q15116 25-288); test: cell-based or functional assay
[2] = molecular target: T1, 人PD-1 (on CHOZn/PD-1 stably transfected …); test: flow cytometry; competition with hPD-L1-Biotin on CHOZn/PD-1 cells (method of Example 5)

T1 sequence (Q15116 25-288): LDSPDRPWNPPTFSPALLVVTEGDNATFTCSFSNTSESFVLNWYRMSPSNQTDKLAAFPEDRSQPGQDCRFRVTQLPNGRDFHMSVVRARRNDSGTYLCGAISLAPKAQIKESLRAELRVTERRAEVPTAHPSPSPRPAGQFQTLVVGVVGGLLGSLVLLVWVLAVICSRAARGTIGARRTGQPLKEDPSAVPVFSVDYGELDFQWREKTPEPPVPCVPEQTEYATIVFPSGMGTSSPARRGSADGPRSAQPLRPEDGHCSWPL

Luciferase reporter assay EC50 [1]: 0.699 µg/mL | IC50 [2]: 1.03 µg/mL
B1: 人源化PD-1纳米抗体(HuNb-Fc) (Fc fusion)
chain: EVQLQESGGGLVQPGGSLRLSCAASGYTYSSYYMGWFRQAPGKGLEGVAAIDRDGRTSYADSVKGRFTISRDNAKNTLYLQMNSLRAEDTAVYYCAAVLVLSGYYSDYGLVPPPFEYNYWGQGTLVTVSS[human IgG4 Fc with S228P (EU numbers) not listed]
notes: also called 二价抗体HuNb-Fc

Source: CN112442122A (SHANGHAI NOVAMAB BIOPHARMACEUTICALS CO LTD, dated 2021)
